Results on 5 molecules are retold here after article PMC5522103.

By UniProt entry, the sequences of proteins in these tests, tags left out.
UniProt P23771: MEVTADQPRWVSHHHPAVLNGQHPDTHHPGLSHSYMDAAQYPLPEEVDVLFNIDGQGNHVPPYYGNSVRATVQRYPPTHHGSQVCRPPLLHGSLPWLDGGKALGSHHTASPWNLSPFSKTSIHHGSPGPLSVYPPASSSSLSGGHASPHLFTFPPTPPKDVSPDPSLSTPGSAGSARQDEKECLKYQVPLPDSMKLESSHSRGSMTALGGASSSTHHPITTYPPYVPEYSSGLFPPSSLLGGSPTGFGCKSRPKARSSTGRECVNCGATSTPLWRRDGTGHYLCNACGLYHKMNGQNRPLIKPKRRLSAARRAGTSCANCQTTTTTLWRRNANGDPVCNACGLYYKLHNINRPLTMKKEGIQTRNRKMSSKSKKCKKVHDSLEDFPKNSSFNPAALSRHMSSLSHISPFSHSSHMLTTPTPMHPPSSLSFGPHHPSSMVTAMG

These are yes or no findings as the source states them, for the method shown. In cells and extracts the contact can be indirect. Some entries that bind do so weakly or less than the wild type.

Common to all, as to experiment: co-IP; endogenous proteins in MCF7 cell lysates; lysates incubated with 4 ug of antibody (anti-ER(α), anti-Ell3, anti-GATA3 or anti-FOXA1) for 16 h at 4°C, then protein G beads 1 h at 4°C; beads washed once in lysis buffer; western blot
On the technique in general: A western blot detects proteins with antibodies after separation by electrophoresis.

In experiment [1] the target is Estrogen receptor alpha (human (endogenous in MCF7)) (UniProt P03372).
Experiment [2] concerns the target T1, Ell3 (transcription elongation factor, eleven-nineteen lysine-rich leukemia family) (human (endogenous in MCF7)) (UniProt Q9HB65).
T1 sequence: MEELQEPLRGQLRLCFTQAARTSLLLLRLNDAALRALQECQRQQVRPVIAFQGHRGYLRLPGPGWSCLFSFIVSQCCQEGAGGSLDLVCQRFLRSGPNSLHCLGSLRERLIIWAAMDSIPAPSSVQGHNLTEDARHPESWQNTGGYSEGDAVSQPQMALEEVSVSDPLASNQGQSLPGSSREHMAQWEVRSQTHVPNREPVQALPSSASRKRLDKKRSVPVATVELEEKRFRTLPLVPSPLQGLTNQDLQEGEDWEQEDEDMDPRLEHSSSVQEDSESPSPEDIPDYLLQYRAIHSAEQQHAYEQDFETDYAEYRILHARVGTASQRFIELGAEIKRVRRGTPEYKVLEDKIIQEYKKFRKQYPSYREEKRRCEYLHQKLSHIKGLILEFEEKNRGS

Experiment [3] concerns the target T2, FOXA1 (human (endogenous in MCF7)) (UniProt P55317).
T2 sequence: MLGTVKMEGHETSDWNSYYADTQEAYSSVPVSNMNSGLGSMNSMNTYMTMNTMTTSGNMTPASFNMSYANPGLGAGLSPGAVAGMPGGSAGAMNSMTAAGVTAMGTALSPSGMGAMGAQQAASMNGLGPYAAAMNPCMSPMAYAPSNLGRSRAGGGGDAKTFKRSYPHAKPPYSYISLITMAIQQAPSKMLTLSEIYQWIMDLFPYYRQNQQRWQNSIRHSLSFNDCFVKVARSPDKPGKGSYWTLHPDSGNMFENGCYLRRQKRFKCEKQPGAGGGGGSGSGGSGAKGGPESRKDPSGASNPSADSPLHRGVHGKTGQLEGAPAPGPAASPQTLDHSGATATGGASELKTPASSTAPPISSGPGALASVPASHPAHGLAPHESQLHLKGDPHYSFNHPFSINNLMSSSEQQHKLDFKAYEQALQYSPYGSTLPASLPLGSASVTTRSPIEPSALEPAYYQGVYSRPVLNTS

For experiment [4], the target named is GATA3 (human (endogenous in MCF7)) (UniProt P23771).
The target in experiment [5] is T3, Estrogen receptor alpha (human (endogenous in MCF7)), P03372.
T3 chain: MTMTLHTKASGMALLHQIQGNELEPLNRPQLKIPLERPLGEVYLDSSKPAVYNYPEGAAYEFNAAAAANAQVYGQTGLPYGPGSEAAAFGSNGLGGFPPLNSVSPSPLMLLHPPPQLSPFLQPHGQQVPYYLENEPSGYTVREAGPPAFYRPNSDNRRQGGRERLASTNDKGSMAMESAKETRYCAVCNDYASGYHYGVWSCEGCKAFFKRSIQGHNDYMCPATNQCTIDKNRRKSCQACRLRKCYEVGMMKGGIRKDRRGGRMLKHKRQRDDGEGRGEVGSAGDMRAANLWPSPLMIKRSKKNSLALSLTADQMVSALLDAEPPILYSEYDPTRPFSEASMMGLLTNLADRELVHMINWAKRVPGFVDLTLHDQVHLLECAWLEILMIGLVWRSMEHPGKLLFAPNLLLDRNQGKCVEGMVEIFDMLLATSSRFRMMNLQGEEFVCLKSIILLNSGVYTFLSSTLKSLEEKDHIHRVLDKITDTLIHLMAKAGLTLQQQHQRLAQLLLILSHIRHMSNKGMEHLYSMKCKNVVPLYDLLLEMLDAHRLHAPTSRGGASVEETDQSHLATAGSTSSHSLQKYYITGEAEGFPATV
The following applies: remark: other sources report otherwise.

Consider GATA3 (from UniProt P23771 1-443), for which the binding result in experiment [1] is given as “binds”.
Consider “Estrogen receptor alpha (from UniProt P03372 1-595)”, for which, in experiment [2], the binding entry is “binds”.

B1: Ell3 (transcription elongation factor, eleven-nineteen lysine-rich leukemia family) (protein, UniProt Q9HB65 1-397)
chain: MEELQEPLRGQLRLCFTQAARTSLLLLRLNDAALRALQECQRQQVRPVIAFQGHRGYLRLPGPGWSCLFSFIVSQCCQEGAGGSLDLVCQRFLRSGPNSLHCLGSLRERLIIWAAMDSIPAPSSVQGHNLTEDARHPESWQNTGGYSEGDAVSQPQMALEEVSVSDPLASNQGQSLPGSSREHMAQWEVRSQTHVPNREPVQALPSSASRKRLDKKRSVPVATVELEEKRFRTLPLVPSPLQGLTNQDLQEGEDWEQEDEDMDPRLEHSSSVQEDSESPSPEDIPDYLLQYRAIHSAEQQHAYEQDFETDYAEYRILHARVGTASQRFIELGAEIKRVRRGTPEYKVLEDKIIQEYKKFRKQYPSYREEKRRCEYLHQKLSHIKGLILEFEEKNRGS
Turning to B1, the binding entry is “no binding” in experiment [3], “binds” in experiment [1] and “binds” in experiment [4].

B2: FOXA1, P55317 1-472 (protein)
chain: MLGTVKMEGHETSDWNSYYADTQEAYSSVPVSNMNSGLGSMNSMNTYMTMNTMTTSGNMTPASFNMSYANPGLGAGLSPGAVAGMPGGSAGAMNSMTAAGVTAMGTALSPSGMGAMGAQQAASMNGLGPYAAAMNPCMSPMAYAPSNLGRSRAGGGGDAKTFKRSYPHAKPPYSYISLITMAIQQAPSKMLTLSEIYQWIMDLFPYYRQNQQRWQNSIRHSLSFNDCFVKVARSPDKPGKGSYWTLHPDSGNMFENGCYLRRQKRFKCEKQPGAGGGGGSGSGGSGAKGGPESRKDPSGASNPSADSPLHRGVHGKTGQLEGAPAPGPAASPQTLDHSGATATGGASELKTPASSTAPPISSGPGALASVPASHPAHGLAPHESQLHLKGDPHYSFNHPFSINNLMSSSEQQHKLDFKAYEQALQYSPYGSTLPASLPLGSASVTTRSPIEPSALEPAYYQGVYSRPVLNTS
Take B2: in experiment [5], the binding result was “binds”.

B3: FOXA1 (protein, UniProt P55317 1-472)
chain: MLGTVKMEGHETSDWNSYYADTQEAYSSVPVSNMNSGLGSMNSMNTYMTMNTMTTSGNMTPASFNMSYANPGLGAGLSPGAVAGMPGGSAGAMNSMTAAGVTAMGTALSPSGMGAMGAQQAASMNGLGPYAAAMNPCMSPMAYAPSNLGRSRAGGGGDAKTFKRSYPHAKPPYSYISLITMAIQQAPSKMLTLSEIYQWIMDLFPYYRQNQQRWQNSIRHSLSFNDCFVKVARSPDKPGKGSYWTLHPDSGNMFENGCYLRRQKRFKCEKQPGAGGGGGSGSGGSGAKGGPESRKDPSGASNPSADSPLHRGVHGKTGQLEGAPAPGPAASPQTLDHSGATATGGASELKTPASSTAPPISSGPGALASVPASHPAHGLAPHESQLHLKGDPHYSFNHPFSINNLMSSSEQQHKLDFKAYEQALQYSPYGSTLPASLPLGSASVTTRSPIEPSALEPAYYQGVYSRPVLNTS
In the case of B3, the binding result in experiment [4] was “binds”.
